# Experimental data from PubChem BioAssay (NCATS).
# Several values for one entry are separate records, joined by “and”; a condition that tells them apart may be missing. Equal values may be shown once. Inconclusive means that the source gave no clear call. Such entries were picked first, then a sample of the others. A call without a number means that no potency is given here. Potencies beside an inconclusive call are fits to weak or partial responses and may not hold up. Activity calls are given as the source filed them. Unless noted, the call rests on the fitted dose curve.
# Columns and labels:
# [1] = A High-Content qHTS Against Drug Library for the Identification of Small Molecules that Inhibit DYT1 Early Onset Primary Dystonia-Associated Cell Pathology (AID 1645839)
# Procedure, shortened: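 Cells were seeded and left for 24 h, then dosed with compound alongside tetracycline induction of mutant EGFP-TorsinA. They were incubated for 48 h, fixed in 4% paraformaldehyde, permeabilized and imaged for mislocalization (%pathology) and cell count.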
# [2] = Primary qHTS for small molecule stabilizers of the endoplasmic reticulum resident proteome: Secreted ER Calcium Modulated Protein (SERCaMP) assay (AID 1508630; active means well fitted curve in the direction sought with a large enough effect; inconclusive means small, poorly fitted or top-dose-only effect, or another doubt; inactive means no such curve, though single readings can be large; an effect the other way counts as inactive or inconclusive); settings: SH-SY5Y GLuc-SERCaMP (Gaussia luciferase released on ER calcium loss) secretion, thapsigargin, luminescence; activity change, negative = inhibition: at 38.4 µM (top of the series)
# Procedure, shortened: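 The SH-SY5Y reporter protocol was run at 3 concentrations up to 38.3 uM (primary) or 11 concentrations (follow-up): 16 h compound, 100 nM thapsigargin for 4 h, then extracellular luciferase luminescence.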
# [3] = target: Cytochrome P450 2C9 (Homo sapiens) (UniProt P11712); test: Cytochrome P450 family 2 subfamily C member 9 (CYP2C9) small molecule antagonists: luciferase biochemical (cell-free) qHTS assay (AID 1645842; active means well fitted curve in the direction sought with a large enough effect in the repeat runs; inconclusive means weak or mixed curves; inactive means no such curve, though single readings can be large; an effect the other way counts as inactive or inconclusive; further: nearly all actives have a fitted effect of over 55% in size)
# Chain of UniProt P11712 (P11712 whole entry, looked up): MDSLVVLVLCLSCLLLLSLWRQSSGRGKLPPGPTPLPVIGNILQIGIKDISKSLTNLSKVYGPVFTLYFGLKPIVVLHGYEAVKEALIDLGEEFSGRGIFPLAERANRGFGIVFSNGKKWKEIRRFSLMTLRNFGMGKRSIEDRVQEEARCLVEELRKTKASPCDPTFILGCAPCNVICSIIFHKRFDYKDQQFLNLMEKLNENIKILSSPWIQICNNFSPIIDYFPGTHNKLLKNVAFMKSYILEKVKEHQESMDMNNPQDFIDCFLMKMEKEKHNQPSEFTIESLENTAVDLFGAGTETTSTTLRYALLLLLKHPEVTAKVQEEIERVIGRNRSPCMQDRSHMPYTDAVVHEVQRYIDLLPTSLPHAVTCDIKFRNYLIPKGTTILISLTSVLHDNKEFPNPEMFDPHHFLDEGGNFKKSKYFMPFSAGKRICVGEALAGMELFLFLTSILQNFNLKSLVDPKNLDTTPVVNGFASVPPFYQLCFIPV
# Procedure, shortened: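 P450-Glo CYP2C9 system: proluciferin substrate with enzyme in mix containing 0.4% BSA, 10 min at room temperature, then NADPH regeneration solution added and incubated 1 h at 37C. Detection reagent stopped reaction; luminescence read after 20 min as RLU.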
# [4] = Cytotoxicity counterscreen for inhibitors of SARS-CoV-2 cell entry (AID 1645845); settings: activity change, negative = cytotoxicity: at 57.1 µM (top of the series) unless noted; further: nearly all actives have a fitted effect of over 50% in size
# Procedure, shortened: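 Counterscreen run in the same HEK293-ACE2 line as the pseudotyped-particle entry assay, without particles. Viability after 48 h at 37 C was read as ATP luminescence, scaled between cell-containing and cell-free wells.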
# [5] = target: Cytochrome P450 2D6 (Homo sapiens) (UniProt P10635); test: Cytochrome P450 family 2 subfamily D member 6 (CYP2D6) small molecule antagonists: luciferase biochemical (cell-free) qHTS assay (AID 1645840; active means well fitted curve in the direction sought with a large enough effect in the repeat runs; inconclusive means weak or mixed curves; inactive means no such curve, though single readings can be large; an effect the other way counts as inactive or inconclusive; further: nearly all actives have a fitted effect of over 55% in size)
# Chain of UniProt P10635 (P10635 whole entry, looked up): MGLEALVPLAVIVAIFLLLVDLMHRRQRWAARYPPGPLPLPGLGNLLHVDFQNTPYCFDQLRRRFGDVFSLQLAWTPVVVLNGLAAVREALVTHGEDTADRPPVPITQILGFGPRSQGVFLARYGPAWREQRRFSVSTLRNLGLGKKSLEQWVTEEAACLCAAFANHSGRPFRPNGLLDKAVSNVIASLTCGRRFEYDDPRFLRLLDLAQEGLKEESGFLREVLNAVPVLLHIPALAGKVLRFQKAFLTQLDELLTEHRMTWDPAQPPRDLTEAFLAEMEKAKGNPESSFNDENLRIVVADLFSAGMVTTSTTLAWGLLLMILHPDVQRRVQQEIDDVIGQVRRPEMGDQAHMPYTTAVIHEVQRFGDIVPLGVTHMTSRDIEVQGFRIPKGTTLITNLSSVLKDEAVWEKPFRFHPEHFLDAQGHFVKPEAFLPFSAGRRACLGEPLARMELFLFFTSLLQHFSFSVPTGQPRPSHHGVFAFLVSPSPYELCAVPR
# Procedure, shortened: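 P450-Glo CYP2D6 system: proluciferin substrate converted by enzyme to luciferin, read by luminescence proportional to activity. Enzyme-substrate mix with compound 10 min at room temperature, then NADPH regeneration 1 h before detection reagent.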
# [6] = target: Cytochrome P450 3A4 (Homo sapiens) (UniProt P08684); test: Cytochrome P450 family 3 subfamily A member 4 (CYP3A4) small molecule antagonists: luciferase qHTS assay (AID 1645841; active means well fitted curve in the direction sought with a large enough effect in the repeat runs; inconclusive means weak or mixed curves; inactive means no such curve, though single readings can be large; an effect the other way counts as inactive or inconclusive; further: nearly all actives have a fitted effect of over 45% in size)
# Chain of UniProt P08684 (P08684 whole entry, looked up): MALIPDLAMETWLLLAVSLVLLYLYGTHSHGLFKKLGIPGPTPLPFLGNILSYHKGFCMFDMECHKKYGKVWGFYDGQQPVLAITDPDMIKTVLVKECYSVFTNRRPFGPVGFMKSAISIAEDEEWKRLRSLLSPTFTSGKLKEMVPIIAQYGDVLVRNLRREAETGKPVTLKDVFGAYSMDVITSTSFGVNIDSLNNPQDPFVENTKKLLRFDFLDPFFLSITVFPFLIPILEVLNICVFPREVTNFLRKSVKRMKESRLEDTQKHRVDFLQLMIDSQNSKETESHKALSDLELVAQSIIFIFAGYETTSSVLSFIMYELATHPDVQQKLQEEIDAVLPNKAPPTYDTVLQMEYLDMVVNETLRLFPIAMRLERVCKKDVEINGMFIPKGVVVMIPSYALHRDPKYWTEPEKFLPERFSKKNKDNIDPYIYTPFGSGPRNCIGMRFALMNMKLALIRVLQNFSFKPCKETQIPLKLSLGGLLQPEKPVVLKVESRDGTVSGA
# Procedure, shortened: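 P450-Glo CYP3A4 enzyme with proluciferin substrate preincubated 10 min with compound at room temperature, then NADPH regeneration 1 h. Luciferin detection reagent added for 20 min; luminescence recorded. Ketoconazole positive control.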
# Potency means the concentration at half of the fitted maximal effect; tags describe the fitted curve by direction and shape.
smiles,measurement,setting,value
Oc1ccc([C@H]2CNCc3c2ccc(O)c3O)cc1O,Potency,[1],"inconclusive: 35.5 µM [inhibitor, single point]"
Cn1c(CCCC(=O)O)nc2cc(N(CCCl)CCCl)ccc21,Potency,[2],"inactive and inconclusive: 74.9 nM [inhibitor, full curve]"
same,Potency,[3],inactive
CCCCCC[C@H]1C(=O)O[C@H](C)[C@H](NC(=O)c2cccc(NC=O)c2O)C(=O)O[C@@H](C)[C@@H]1OC(=O)CC(C)C,Potency,[2],inactive
same,"activity change, negative = cytotoxicity",[4],inconclusive: -58.4%
COc1ccc(C(=O)c2c(C)n(CCN3CCOCC3)c3ccccc23)cc1,Potency,[2],inactive
same,Potency,[4],"inconclusive: 35.5 µM [cytotoxic, single point]"
c1ccc2c(c1)Nc1ccccc1S2,Potency,[2],inactive
same,Potency,[3],inactive
Cc1nnc2n1-c1sc(CCC(=O)N3CCOCC3)cc1C(c1ccccc1Cl)=NC2,Potency,[2],inactive
same,Potency,[4],inactive
CCCCCCCCc1ccc(O)cc1,Potency,[1],"inconclusive: 14.1 µM [inhibitor, partial curve, poor fit]"
O=C1NCN(c2ccccc2)C12CCN(CC1COc3ccccc3O1)CC2 (stereo not drawn),Potency,[1],inactive
NC1=NC(=O)N2CC12 (stereo not drawn),Potency,[2],"inconclusive: 6.68 µM [inhibitor, full curve]"
same,"activity change, negative = cytotoxicity",[4],inconclusive: -84.7%
S=C(SSC(=S)N1CCCCC1)N1CCCCC1,Potency,[2],inactive
same,Potency,[3],"inconclusive: 34.7 µM [inhibitor, single point]"
same,Potency,[4],"inconclusive: 0.794 µM [cytotoxic, full curve, poor fit]"
CN1C(=O)COc2c(C(=O)NC3CN4CCC3CC4)cc(Cl)cc21 (stereo not drawn),Potency,[2],"inconclusive: 35.5 µM [inhibitor, partial curve]"
same,Potency,[3],inactive
CCC1(CCC(C)C)C(=O)NC(=O)NC1=O,Potency,[2],"inconclusive: 50.1 µM [inhibitor, single point]"
same,Potency,[3],inactive
CC(C)NC(C)C,Potency,[2],"inconclusive: 28.2 µM [inhibitor, single point]"
same,Potency,[3],inactive
same,Potency,[4],inactive
CC(C)NCC(O)c1ccccc1Cl (stereo not drawn),Potency,[2],"inconclusive: 0.0562 µM [inhibitor, full curve]"
same,Potency,[3],inactive
C[C@]12CC[C@H]3[C@@H](CCC4=CC(=O)CC[C@@]43C)[C@@H]1CC[C@@H]2C(=O)O,Potency,[2],"inconclusive: 7.94 µM [inhibitor, partial curve, poor fit]"
same,Potency,[3],inactive
OCCCBr,Potency,[2],"inconclusive: 8.91 µM [inhibitor, full curve, poor fit]"
same,Potency,[3],"inconclusive: 15.9 µM [inhibitor, partial curve, poor fit]"
COc1ccc(C(=O)N2CCCC2=O)cc1,Potency,[2],"inactive and inconclusive: 10 µM [inhibitor, partial curve, poor fit] and inconclusive: 10 µM [inhibitor, single point]"
same,Potency,[3],inactive
CCN(CC)C(=O)N[C@@H]1C=C2c3cccc4[nH]cc(c34)C[C@@H]2N(C)C1,Potency,[1],inactive
COP(=S)(OC)SCN1C(=O)c2ccccc2C1=O,Potency,[1],inactive
NCC1(CC(=O)O)CCCCC1,Potency,[1],inactive
OC(O)C(Cl)(Cl)Cl,Potency,[1],inactive
COc1ccc(Cc2nccc3cc(OC)c(OC)cc23)cc1OC,Potency,[2],"inconclusive: 11.2 µM [inhibitor, single point]"
same,Potency,[4],"inconclusive: 15.8 µM [cytotoxic, partial curve, poor fit] and active: 7.94 µM"
COc1cc(CC(C)N)c(OC)cc1Br (stereo not drawn),Potency,[1],"inconclusive: 63.1 µM [inhibitor, single point]"
C[C@]12CC[C@H]3[C@@H](CC[C@@]45O[C@H]4C(O)=C(C#N)C[C@]35C)[C@H]1CC[C@H]2O,Potency,[1],inactive
same,Potency,[3],inactive
COc1cc(CC#N)cc(OC)c1OC,Potency,[1],inactive
same,Potency,[5],inactive
same,Potency,[3],inactive
[N-]=[N+]=CC(=O)OC[C@H](N)C(=O)O,Potency,[1],inactive
same,Potency,[5],"inconclusive: 38.9 µM [inhibitor, single point]"
same,Potency,[3],inactive
O=C(Nc1ccc(Br)cc1)c1cc(Br)cc(Br)c1O,Potency,[1],"inconclusive: 8.91 µM [inhibitor, partial curve]"
same,Potency,[5],"inconclusive: 19.5 µM [inhibitor, partial curve, poor fit]"
O=c1[nH]c2ccccc2n1C1CCNCC1,Potency,[1],inactive
same,Potency,[5],"inconclusive: 30.9 µM [inhibitor, single point]"
same,Potency,[6],"inconclusive: 43.6 µM [falling, single point]"
